Sequences with one replicate were seen in a single cluster, so their values are uncertain.
Test system: ATP
Assay: switch fluorescence ratio, 500 uM ATP over buffer (Cy3 cluster intensity, sum of 5 cycles each) (fold (ratio)); higher = stronger signal-on switching upon ATP binding; sequences stand for … in TCGTCGGCAGCGTCAGATGTGTATAAGAGACAGTTTTTTTTTTTTTTTTTTTTTTTTT…TC
Conditions: aptamer strand: ATP DNA aptamer (quencher-CACCTGGGGGAGTATTGCGGAGGAAGG + anchor), 100 nM annealed; ATP concentration: 500 uM; one replicate
How it was run: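 For every switch-domain sequence, the fluorescence ratio is the mean of per-cluster values, each being summed target-cycle Cy3 intensity over summed buffer-cycle Cy3 intensity. Clusters outside 100-1000 RFU were excluded. On a modified Illumina MiSeq flow-cell, the Cy3-labelled switching-strand clusters were annealed to 100 nM quencher-labelled ATP aptamer, imaged in selection buffer and then after 15 min with 500 uM ATP at 22 °C. Five such cycles were run, with NaOH stripping and re-annealing between them.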
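Further: ATP exposure 15 min at 22 °C before imaging.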

Sequence	switch fluorescence ratio
CGAGTAGAAG	0.96
TCATACTGGG	0.991
TTGGATAGT	1.04
GCCGACAGCG	1.02
TTAGCGGTCC	1.03
TGGTCCAACA	0.929
AGCCGACGTG	1.02
TATACAGCGG	0.994
GCGAGTATTT	1.01
TCACGGTGAG	0.967
TAGGTCAGCG	1.01
TTGGTAGTC	1.01
TGGCTAGTTC	0.983
GGCTCATATT	0.996
CTGTTACGTA	1.1
CGAACGTGTG	0.946
CGGCTTTTAG	1.02
TTTACGGCAA	1.47
TTTCGTACAC	1.06
AGGTCCTGTT	0.971
GAGGACCCCT	1.05
TTACGGGAG	1.05
GCAATCTCGC	2.81
ACCGGACTTG	0.985
TTACAAGTCT	0.977
TAGATCTAAT	0.964

Sequence	switch fluorescence ratio
TTTTCGTCG	0.998
GCGTAAGGAT	0.982
TCGTAGTGAC	1.29
GCGGGATCGC	0.969
AGGTGTCTAT	1.01
TTACGAGGTT	1
GAGGAGTGAG	0.938
CATCTGGTTG	1.09
CTTGGAGGGC	0.997
GACGTTAGC	1.07
ACGAGGACGA	1.07
GATAGAAGAT	1.02
AGGTGGCCCT	0.986
CCAGACCGGG	0.973
CTTGATACAA	0.951
TCATCTCTGT	1
TCATGGATTG	1
GAACTTTGTG	1.01
GTCGTGCGGA	1.07
TTTGACAGCA	1.04
GCGAAGCCCC	1.01
GGTCACCCGT	1
AGGCTGTGCG	1.02
TCTGTGAACG	0.986
GCATTCAACA	0.988
TTCGGCAGC	1.02

Sequence	switch fluorescence ratio
CATTGTATCC	1.07
AATCCCGGCT	1.1
GCAGACACGA	1.05
CGGCCTTTTG	0.994
CCAATGTACC	1.19
GCACCTCGGT	1.05
TGCTAATAGC	1.04
ATTCCCTTTT	1.06
AAAGGTTGAA	0.979
GGTTGATGAC	1.01
ACAACATAGG	1
TCTTGCGTG	0.987
ATAGATATAC	1.05
AGATGGATTC	0.996
GTTTAGCTAC	1.14
GTTACGTGTG	0.99
GATACGCGGC	1.2
AAAAGGCTTG	1.02
TATGAGGTGT	1.08
GAACAGTCTG	1
AAACCCTCGG	1.02
CGGGATTGTG	0.932
ATAGAAAAC	0.973
AATCTCTTCT	1
CGCTCTCATA	1.05
TCGTAGACAA	1.33

Sequence	switch fluorescence ratio
CCGTCACATT	3.49
TGAACATGGT	1.01
ATGGAGCAAT	1.06
TCGCATACGT	1.65
GAGGGAATAC	1.72
CGACGCTTGA	2.28
TAAGCTCAGG	1.05
GCTGTTGGAC	1.09
GACTAATATT	1.03
TTCCGGAATG	2.42
GTGTCGTAGC	1.02
CTTCCGAACT	1.57
CAGAGATAGT	0.953
AAAATAATTT	1.05
CGAACTGGCT	1.01
CAAGTAACAC	1.09
TTGTTCTACT	0.971
TACAGGGACG	1.23
AAAGTGCGCT	1.02
TATGGGTCC	1.02
TCGCTGTCCG	0.999
TTGCGGTCCT	1.02
TAATATCGCT	0.989
TATTCGGCAT	1.01
CCTCACAGCT	2.27
TACTCTACGA	1.37

Sequence	switch fluorescence ratio
ATTTAAGCAA	1.77
GGGACGTTTG	0.988
CGGATCGTTC	1.02
TGCAGACGT	1.02
TCTCGGGAAT	1.56
CAGATATTGT	0.974
ACCTGGGACT	1.06
GATTCTGTTG	0.96
ACTGAATTCT	1.06
TGCGCGCAGT	0.989
ATAGCGTTGA	1.05
TTCTATATTC	0.981
TCCTGTCGTT	0.996
GTCTACTCGC	0.996
CGGCGAATGC	0.989
TGCAAATGGT	1.01
ACTGACAGGA	1.16
TAATGGGACT	1.03
CACTGTTGGG	0.975
AAGGATCACA	0.984
CTTGTGCAAT	5.77
GTTCAATTGC	0.971
ATTGATGTAG	1
TAGCACGCTC	1.1
CAAATGAAAA	1.06
GGGCCTCGCG	1.04

Sequence	switch fluorescence ratio
ACCACATGTT	1.09
AGTGGGTTGT	0.968
GTCCTGAAGA	1
GATTCTAGTT	1.03
TGGCATTAAT	0.969
GGGTACACGG	0.999
AACGTCGCCC	1.02
CACGGAAGAT	1.04
TGGTACTCTG	1.01
CAAGCCTAGG	1.05
AACTTTAAG	1.02
TCAACGAGGC	1.02
ATCCAACTTT	1.02
CGCCCTGTG	2.34
ACAAACTTCT	1.16
CGTTTTGGA	1.03
ACACTGTCTG	1.01
TAGGACGGGA	1.01
CACTCTGCAG	3.19
GGCATAAAAA	0.994
CCCCCCTCGT	1.12
ACATGGCCCC	1.06
CACGACAGGT	1.16
ACCGAGAACC	0.993
CACGTAGGTC	1.03
GGTAGGCGCA	0.96

Sequence	switch fluorescence ratio
CGCTCTCTCT	1.06
TATTGGCTAG	0.993
GATAGATGAG	1.02
CTTTCATTCT	1.03
GTGGTAAAGA	0.987
AGTTAAAGGG	1.04
TTGCAGGGCT	1.03
AAACGAGGG	0.981
GTCGAATCGC	0.992
ACAACGGGGA	0.993
CCATGTCTGA	0.989
CGAAATTGCC	0.986
GCTGCATCTA	1.01
TGGAGGGAAA	0.977
GGTCCTGAGG	1.03
GTAATGTGTA	0.983
TACAATTCAG	0.976
CTATACCAG	0.959
CTGTGTTTGC	1.01
CGATACGAGC	1.06
TGTAAGGCGG	1.01
ACAATAGGAG	1.07
GACGGGAAAT	1
GTCTTACACT	1.03
ACTCAAAGTT	0.957
CTTTGGATGA	0.994

Sequence	switch fluorescence ratio
TTTCGGTCCA	1.03
GATTCTTTAA	1.01
TCCCCAAAAG	1.1
ACTCCATCCT	1.08
ACAGATTTCG	1.03
AAATAGGGC	1.01
AGACTGAGGG	0.994
CATACTGTT	1.01
CGAAGTAAAC	4.26
CACAAGAAGG	1.01
TAACCGGGCT	1.01
CTGCTCGA	1.03
AGGTGTGAAG	0.947
GCCAACGCGC	1.15
TAAAGGGTCT	1.04
TAAGCCGGAC	1.02
GGTAAAACTT	1.04
ATAAAAAGT	1.01
CTCCGTTGGG	1.92
